Reference: PubChem BioAssay AID1814 (Broad Institute, 2009)
About 22,000 (7.3%) of roughly 300,000 compounds were called active. This list was built around the results that the source calls inconclusive (neither active nor inactive); the mix of calls is not that of the screen. Rule as the data show it: active = activity score below about -60%; inconclusive = mostly about -28% to -61%; inactive = positive scores.

Assay: Activators via SNCA 5'UTR binding, MLPCN (AID 1814)
Conditions: alpha-synuclein 5'UTR reporter, activators screen; stronger effect = lower value; tested at 7.5 µM

Q: With `COC(=O)Nc1nc(-c2ccccc2)c(C(=O)c2ccccc2)s1` as the compound, how does the activity score read?
A: inactive: 100%

Q: For `Cc1cc2c(nn1)CCc1c-2no[n+]1[O-]`, which activity score is on record?
A: inconclusive: -56.3%

Q: For `COc1ccc(-c2nc(CN3CCN(c4cc(C)nc(C)c4)CC3)c(C)o2)c2ccccc12`, which activity score is on record?
A: inactive: 67.9%

Q: Which activity score does the source give for `CC(=O)Oc1ccc(C(=O)Nc2nnc(C)s2)cc1` here?
A: active: -63.3%

Q: Which activity score does the source give for `CN(C)CCn1cnc2c(c1=N)C(c1ccccc1)c1ccc3ccccc3c1O2` (stereo not drawn) here?
A: inactive: 90.4%

Q: For `COc1cc(C(=O)Oc2cccc(/C=N/NC(=O)c3cccnc3)c2)cc(OC)c1OC`, which activity score is on record?
A: inconclusive: -49.9%

Q: Which activity score does the source give for `CCCC(=O)n1nc(-c2cccnc2)nc1NCc1cccs1` here?
A: inconclusive: -34.5%

Q: Which activity score does the source give for `O=C(CS(=O)(=O)c1ccccc1)Nc1nc2ccccc2s1` here?
A: inconclusive: -59.6%

Q: With `O=C(Cn1cc2c(n1)CCCC2)Nc1cc(-c2cccc(Cl)c2)no1` as the compound, how does the activity score read?
A: inconclusive: -51.6%

Q: For `Cc1ccc(SCC(=O)Nc2ccccc2C(=O)O)cc1`, which activity score is on record?
A: inconclusive: -54.6%

Q: Which activity score does the source give for `CC(C)c1ccc(NC(=S)N(C)CCc2ccccn2)cc1` here?
A: inconclusive: -26.7%

Q: Which activity score does the source give for `COCCNC(=O)c1ccc2c(c1)ncn2-c1ccc(C)c(Cl)c1` here?
A: inconclusive: -50.2%

Q: Which activity score does the source give for `O=C1c2ccccc2C(=O)C1c1ccnc2ccccc12` here?
A: inactive: 88.8%

Q: Which activity score does the source give for `CC(/C=N/NC(=O)c1c(Br)cnn1C)=C\c1ccccc1` here?
A: inconclusive: -50.7%

Q: Which activity score does the source give for `Cc1ccc(C(=O)Nc2ccccc2Sc2ccccc2)cc1` here?
A: active: -61.7%

Q: With `COCCNc1nc(N)c([N+](=O)[O-])c(NC2CCCCC2)n1` as the compound, how does the activity score read?
A: inactive: 67.7%

Q: With `O=[N+]([O-])c1ccc2nc(-c3ccncc3)[nH]c2c1` as the compound, how does the activity score read?
A: inconclusive: -51.2%

Q: For `O=C(NC(NCc1ccccn1)(C(F)(F)F)C(F)(F)F)c1ccco1`, which activity score is on record?
A: inconclusive: -52.3%

Q: With `Cc1ccc(Cn2c(C3CCCN3c3nc(-c4ccc(F)cc4)cs3)nc3cc(C(F)(F)F)ccc32)cc1` (stereo not drawn) as the compound, how does the activity score read?
A: inconclusive: -60.6%

Q: With `CN1CCc2c(sc(NC(=O)c3ccc([N+](=O)[O-])o3)c2C(N)=O)C1` as the compound, how does the activity score read?
A: inactive: 85.5%

Q: Which activity score does the source give for `O=C(NNC(=S)Nc1ccccc1)c1ccc(O)cc1` here?
A: active: -131%

Q: Which activity score does the source give for `Cc1cc(-c2n[nH]c(=S)n2/N=C/c2cc([N+](=O)[O-])ccc2Cl)n[nH]1` here?
A: inconclusive: -57.4%

Q: For `CCCn1nnc(NC(=O)c2cccc(OCC(C)C)c2)n1`, which activity score is on record?
A: inconclusive: -59.7%

Q: For `COc1cccc(CC(=O)Nc2nc(-c3ccc(F)c(F)c3)cs2)c1`, which activity score is on record?
A: inconclusive: -39.8%

Q: For `O=C(N/N=C/c1cc([N+](=O)[O-])ccc1O)c1cccc(NC(=O)c2cccc(Cl)c2)c1`, which activity score is on record?
A: inactive: 60.4%

Q: For `[O-][N+]1=c2ccc(Nc3ccccc3)cc2=NC12CCCCC2`, which activity score is on record?
A: inconclusive: -57.2%

Q: Which activity score does the source give for `N#C/C(C(=O)NCCc1ccccc1)=C1/N=C(NC(=O)c2cccs2)c2ccccc21` here?
A: inconclusive: -52.3%

Q: For `O=C1N=C(N2CCOCC2)S/C1=C\c1cccs1`, which activity score is on record?
A: inconclusive: -59%

Q: Which activity score does the source give for `O=C(Nc1ccccn1)c1c(O)c2cccc3c2n(c1=O)CCC3` here?
A: inconclusive: -35.6%

Q: Which activity score does the source give for `CNC(=O)c1ccc(CNC(=O)OCc2ccccc2)cc1` here?
A: inconclusive: -37.8%

Q: With `O=[N+]([O-])c1ccccc1S(=O)(=O)NCc1ccc(F)cc1` as the compound, how does the activity score read?
A: inconclusive: -39%

Q: Which activity score does the source give for `CC(=O)NC1Sc2ccccc2N=C1c1ccccc1` (stereo not drawn) here?
A: active: -181%

Q: Which activity score does the source give for `CCN(C(=O)CSc1nnc(Cn2nnc3ccccc32)o1)c1nc(-c2ccccc2)cs1` here?
A: active: -105%

Q: With `COc1ccc(CCNC(=O)c2cc(-c3ccco3)on2)cc1OC` as the compound, how does the activity score read?
A: active: -77.2%

Q: For `O=C(CN1C(=O)c2ccccc2S1(=O)=O)c1ccc(Cl)cc1Cl`, which activity score is on record?
A: inactive: 77.7%

Q: Which activity score does the source give for `Cc1cc(S(=O)(=O)N(Cc2ccccn2)Cc2ccco2)ccc1-n1cnnn1` here?
A: inconclusive: -53.4%

Q: With `CCOCCCNC(=O)C1CCN(S(=O)(=O)c2c(C)noc2/C=C\c2ccc(OC)cc2)CC1` as the compound, how does the activity score read?
A: inconclusive: -44.3%

Q: For `COc1cc(O)c(CC=C(C)C)c(O)c1C(=O)CCc1ccc(O)cc1`, which activity score is on record?
A: inconclusive: -42.1%

Q: With `Cc1cccc(CNC(=O)c2ccc3nc(Cc4ccccc4F)oc3c2)n1` as the compound, how does the activity score read?
A: inconclusive: -60%

Q: With `CN(C)c1ccc(NC(=O)c2ccc3nc[nH]c3c2)cc1` as the compound, how does the activity score read?
A: active: -126%

Q: Which activity score does the source give for `Cc1ccc2nc(Cl)c3cc(C(=O)NCCCN4CCCC4)sc3c2c1` here?
A: inconclusive: -55.6%

Q: With `O=C(Nc1cccc(C(=O)O)c1)Nc1ccc2c(c1)OCO2` as the compound, how does the activity score read?
A: inactive: 99.4%

Q: For `Cc1ccc(SCCN2CCN(CC(C)C)CCC2=O)cc1`, which activity score is on record?
A: inconclusive: -37.9%

Q: Which activity score does the source give for `O=C(/C=C/c1cccs1)N1CCc2ccccc21` here?
A: inconclusive: -53.3%

Q: For `Cc1ccc(C(=O)NNC(=S)Nc2cccc3ccccc23)s1`, which activity score is on record?
A: inconclusive: -58.4%

Q: With `COC(=O)Nc1nc2ccc(C(=O)c3ccc(F)cc3)cc2[nH]1` as the compound, how does the activity score read?
A: inactive: 99.2%

Q: With `Cc1cccc(C)c1NC(=O)COC(=O)c1cccc2c1C(=O)c1ccccc1C2=O` as the compound, how does the activity score read?
A: inactive: 67.9%

Q: Which activity score does the source give for `Clc1ccccc1N1CCN(Cc2c[nH]c3ccccc23)CC1` here?
A: inactive: 64.1%

Q: For `CCn1c(SCc2nc3ccccc3s2)nc2cc(S(=O)(=O)N3CCOCC3)ccc21`, which activity score is on record?
A: inconclusive: -40.5%

Q: With `CC(=O)c1cc(C#N)c(N2CCN(c3ccccc3)CC2)nc1C` as the compound, how does the activity score read?
A: inconclusive: -48.9%

Q: With `CCSc1nc(-c2ccccc2)nc(C(Cl)Cl)n1` as the compound, how does the activity score read?
A: inactive: 123%

Q: For `O=c1c2ccccc2cnn1CCOc1ccccc1`, which activity score is on record?
A: inactive: 72.1%

Q: For `O=C(Nc1nc2ccccc2[nH]1)c1ccccc1F`, which activity score is on record?
A: inactive: 108%

Q: For `C/C(=N\Nc1nc2ccccc2[nH]1)c1ccccn1`, which activity score is on record?
A: inactive: 86.7%

Q: For `CCCCCC(=O)Nc1ccc(-c2csc(C)n2)cc1`, which activity score is on record?
A: inconclusive: -48%

Q: With `Cc1cc(-c2ccccc2)n2nc(C)c(-c3ccccc3)c2n1` as the compound, how does the activity score read?
A: inconclusive: -51.5%

Q: Which activity score does the source give for `COc1ccc(C(=O)CCNc2ccc(C)c(Cl)c2)cc1` here?
A: inconclusive: -54.3%

Q: Which activity score does the source give for `Cc1ccccc1CNC(=O)Nc1ccc(Cl)cc1` here?
A: active: -110%

Q: With `COc1ccc(-c2cc(CNC(=O)CCl)on2)cc1` as the compound, how does the activity score read?
A: inconclusive: -49.6%

Q: Which activity score does the source give for `Cc1cc(C)c2nc(NNC(=O)c3ccc(S(=O)(=O)N4CCc5ccccc5C4)cc3)sc2c1` here?
A: inactive: 75.3%

Q: With `O=C1OCc2cccc3cccc1c23` as the compound, how does the activity score read?
A: inconclusive: -19.4%

Q: With `CN(C)S(=O)(=O)c1ccc(N2CCCC2)c(C(=O)Nc2nc3ccc(F)cc3s2)c1` as the compound, how does the activity score read?
A: inconclusive: -38.7%

Q: With `CC(C)N1CCC2(CC1)N=C(c1ccc3c(c1)OCO3)CC(c1cc(Cl)ccc1O)N2` (stereo not drawn) as the compound, how does the activity score read?
A: active: -173%

Q: With `Cc1cc(NC(=O)c2cccc(F)c2)ncc1NC(=O)c1ccco1` as the compound, how does the activity score read?
A: inconclusive: -61.3%

Q: Which activity score does the source give for `CCOc1ccc(/C=N/Nc2cc(C)nc(N3CCOCC3)n2)cc1` here?
A: active: -105%

Q: For `COc1ccc(-c2cc(=O)c3c(O)c(OC)c(O)cc3o2)cc1`, which activity score is on record?
A: inactive: 70.2%

Q: With `Cc1ccc(O)c(NC(=O)CN(C)S(=O)(=O)c2ccc(Cl)cc2)c1` as the compound, how does the activity score read?
A: inconclusive: -54.8%

Q: With `O=C(CNC(=O)C1CCCCC1)Nc1ccc(Cl)cc1` as the compound, how does the activity score read?
A: inconclusive: -50.5%

Q: Which activity score does the source give for `Oc1ccccc1/C=N/NC(=S)NCCc1ccccc1` here?
A: inconclusive: -52%

Q: Which activity score does the source give for `COc1ccc(-c2cc3ccc(OCC(C)=O)cc3oc2=O)cc1` here?
A: inconclusive: -58.4%

Q: Which activity score does the source give for `O=[N+]([O-])c1cccc(/C([O-])=C(/C(=S)Nc2ccccc2)[n+]2ccccc2)c1` here?
A: active: -105%

Q: For `CCCC[C@@H](CNC)NC[C@H](Cc1ccc(O)cc1)NCCc1ccc(OCC)cc1`, which activity score is on record?
A: inconclusive: -33.9%

Q: For `O=C(N/N=C/c1c[nH]c2ccccc12)c1ccn[nH]1`, which activity score is on record?
A: inconclusive: -56%

Q: For `Cc1[nH]c(C)c(S(=O)(=O)Nc2ccc(F)cc2Cl)c1C(=O)N1CCCC1`, which activity score is on record?
A: inconclusive: -42%

Q: Which activity score does the source give for `c1ccc(-c2cn3nc4c(nc3n2)CCCC4)cc1` here?
A: inactive: 109%

Q: Which activity score does the source give for `Brc1ccc(-n2cnc(-c3ccccc3)c2)cc1` here?
A: active: -136%

Q: For `CCSc1ncc(/C=N/Nc2ccc(Cl)cc2)n1C`, which activity score is on record?
A: active: -181%

Q: With `Cc1cccc(/C=N\Nc2cn[nH]c(=O)c2Cl)c1` as the compound, how does the activity score read?
A: inconclusive: -48.4%

Q: Which activity score does the source give for `Cc1[nH]c2ccccc2c1/C=N/NC(=O)Nc1ccccc1` here?
A: inconclusive: -57%

Q: Which activity score does the source give for `S=C(N/N=C/c1ccccc1)N1CCOCC1` here?
A: inconclusive: -61%

Q: With `Cc1ccc(-c2cc(C(=O)N3N=C(C(F)F)CC3(O)C(F)F)c3ccccc3n2)cc1C` (stereo not drawn) as the compound, how does the activity score read?
A: inconclusive: -60%

Q: Which activity score does the source give for `O=C1CCCc2nc(N3CCCCC3)sc21` here?
A: inconclusive: -61.4%

Q: For `c1ccc(COc2ccccc2CNC23CC4CC(CC(C4)C2)C3)cc1`, which activity score is on record?
A: inconclusive: -40.6%

Q: With `CC(=O)Nc1cccc2c1Cc1ccccc1-2` as the compound, how does the activity score read?
A: active: -159%

Q: For `O=C(c1ccccc1)c1nn(-c2ccccc2)c(=O)cc1C(F)(F)F`, which activity score is on record?
A: inconclusive: -49.8%

Q: With `CC1=NN(c2nc(-c3ccc(C)cc3)cs2)C(=O)C1N=Nc1ccc(C(N)=O)cc1` (stereo not drawn) as the compound, how does the activity score read?
A: inactive: 86.5%

Q: With `CSc1ccc(/C=C/C(=O)NC23CC4CC(CC(C4)C2)C3)cc1` as the compound, how does the activity score read?
A: inconclusive: -55.6%

Q: With `O=C(/C=C/c1ccco1)Nc1ccc(C(=O)N2CCOCC2)cc1` as the compound, how does the activity score read?
A: active: -74.9%

Q: For `COc1cc(C(=O)N/N=C(\c2ccccc2)c2ccccn2)cc(OC)c1OC`, which activity score is on record?
A: inactive: 81.3%

Q: With `COC(=O)c1ccc(NC(=O)COc2ccccc2OC)cc1` as the compound, how does the activity score read?
A: inconclusive: -43.9%

Q: For `COc1cc(-c2noc(C)c2/C=C/c2ccc(OC(C)=O)cc2)cc(OC)c1OC`, which activity score is on record?
A: inactive: 95.2%

Q: For `NC(=O)CC1C(=O)N(c2ccccc2)C(=S)N1NC(=O)c1ccc(Br)cc1` (stereo not drawn), which activity score is on record?
A: inconclusive: -56%

Q: For `O=[N+]([O-])c1ccccc1-c1nc(-c2ccc(Br)o2)no1`, which activity score is on record?
A: active: -266%
